# In the BET-seq Pho4 binding data (Le et al. 2018):
# Some of the results follow. These are noisy estimates, calculated here from bound and input reads.
# Target: T1, Pho4 (S. cerevisiae) (UniProt P07270)
# T1 sequence: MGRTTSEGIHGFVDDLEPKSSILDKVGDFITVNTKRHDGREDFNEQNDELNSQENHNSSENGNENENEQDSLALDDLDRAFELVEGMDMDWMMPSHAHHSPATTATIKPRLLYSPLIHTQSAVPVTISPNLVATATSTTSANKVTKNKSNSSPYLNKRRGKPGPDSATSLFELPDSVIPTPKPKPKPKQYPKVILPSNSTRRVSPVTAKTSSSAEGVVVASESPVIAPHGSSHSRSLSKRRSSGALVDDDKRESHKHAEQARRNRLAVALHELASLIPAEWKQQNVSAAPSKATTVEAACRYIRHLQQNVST
# Assay: relative binding free energy (BET-seq); higher = weaker binding
# Settings: reference: library average
row,Sequence,relative binding free energy
1,AAGGTCACGTGTTACT,0.17 kcal/mol
2,AGAAACACGTGTGTGG,0.1 kcal/mol
3,AAGTTCACGTGAAATG,0.47 kcal/mol
4,GGCTCCACGTGAGGTG,0.3 kcal/mol
5,CTGCTCACGTGGGTGA,0.19 kcal/mol
6,ATGACCACGTGAGGGG,0.29 kcal/mol
7,GGCTTCACGTGTTATG,0.21 kcal/mol
8,TGGTTCACGTGGACAG,0.2 kcal/mol
9,ATTGGCACGTGGAGGG,-0.09 kcal/mol
10,CGAGGCACGTGTAGGG,0.05 kcal/mol
11,GATACCACGTGGAGGG,0 kcal/mol
12,AAGATCACGTGGTTAA,0.12 kcal/mol
13,GGTCACACGTGTTTAT,0.18 kcal/mol
14,TTTTTCACGTGTCTTT,0.14 kcal/mol
15,TTGTTCACGTGCATGC,0.29 kcal/mol
16,GGCGTCACGTGATGAG,0.24 kcal/mol
17,CTTTTCACGTGATGTA,0.42 kcal/mol
18,TTTATCACGTGCTTGG,0.19 kcal/mol
19,TCGCTCACGTGTTGTG,0.07 kcal/mol
20,GCGGGCACGTGATGGC,0.24 kcal/mol
21,AGGATCACGTGGAGGA,0.19 kcal/mol
22,AGTGGCACGTGGTTGA,-0.24 kcal/mol
23,GTTTACACGTGATTAT,0.29 kcal/mol

row,Sequence,relative binding free energy
1,TGATCCACGTGATGTT,0.21 kcal/mol
2,GAATGCACGTGTGGAT,0.06 kcal/mol
3,TGTGGCACGTGCGCTT,-0.31 kcal/mol
4,GTCGCCACGTGTTGGT,-0.04 kcal/mol
5,GATTGCACGTGGCTGT,0 kcal/mol
6,TGAGGCACGTGCAATT,-0.05 kcal/mol
7,GGTACCACGTGTTAGT,-0.07 kcal/mol
8,TGGAGCACGTGGCGGC,-0.18 kcal/mol
9,GTTCGCACGTGAGTGT,0.2 kcal/mol
10,GTTGGCACGTGACTCG,0.03 kcal/mol
11,GGGGTCACGTGTTAGG,0.15 kcal/mol
12,TTGTACACGTGAAGTG,0.31 kcal/mol
13,TTGTCCACGTGGGGGA,-0.09 kcal/mol
14,TGGTGCACGTGGTAGC,-0.07 kcal/mol
15,GAATTCACGTGTGTCG,0.34 kcal/mol
16,GGGCGCACGTGGTGCG,-0.09 kcal/mol
17,GGCGTCACGTGGACGG,0.2 kcal/mol
18,AATTTCACGTGTCGTA,0.16 kcal/mol
19,AGGAGCACGTGATGAG,0.04 kcal/mol
20,TTTATCACGTGCTCGT,0.15 kcal/mol
21,GCTTGCACGTGGGGGG,-0.05 kcal/mol
22,AGTTGCACGTGAGCTT,0.23 kcal/mol
23,TGAATCACGTGGCTGG,0.2 kcal/mol

row,Sequence,relative binding free energy
1,CTGGGCACGTGTAATT,0.04 kcal/mol
2,CGTTTCACGTGTTAAT,0.24 kcal/mol
3,AAGTACACGTGTGAGG,0.16 kcal/mol
4,GGAGGCACGTGTAGGT,-0.05 kcal/mol
5,TTTGGCACGTGCGTGG,-0.23 kcal/mol
6,TGTCACACGTGGGGGA,-0.18 kcal/mol
7,ATATGCACGTGAGGCG,0.11 kcal/mol
8,GTTAACACGTGTAGGG,0.09 kcal/mol
9,GTGTCCACGTGGTGTC,0.03 kcal/mol
10,ATGTTCACGTGCTTGG,0.18 kcal/mol
11,TGGAGCACGTGAAATG,0.27 kcal/mol
12,GGGTACACGTGATGGT,0.3 kcal/mol
13,GCGTGCACGTGTGGGT,0.06 kcal/mol
14,AGTGTCACGTGTAAAT,0.22 kcal/mol
15,TGGTCCACGTGTGTAT,0.14 kcal/mol
16,GATAGCACGTGTGTTT,0.06 kcal/mol
17,GTTTTCACGTGAGGGG,0.46 kcal/mol
18,TGGGTCACGTGTTATA,0.15 kcal/mol
19,GGAGGCACGTGTCCGG,-0.06 kcal/mol
20,AGGCGCACGTGTGCGG,-0.15 kcal/mol
21,TGTGACACGTGTATAA,0.05 kcal/mol
22,ACCGGCACGTGGGGGC,-0.26 kcal/mol
23,GTTAGCACGTGGAGCT,0 kcal/mol

row,Sequence,relative binding free energy
1,GGATTCACGTGGGTAA,0.2 kcal/mol
2,GGTATCACGTGTTTGT,0.19 kcal/mol
3,CGTGCCACGTGAGGTT,-0.01 kcal/mol
4,TGCAGCACGTGGCTGT,-0.15 kcal/mol
5,GCATGCACGTGGTTGA,0 kcal/mol
6,AAAATCACGTGGGGTT,0.07 kcal/mol
7,GTGGTCACGTGCTATG,0.02 kcal/mol
8,GGTTACACGTGATATG,0.19 kcal/mol
9,ACTGGCACGTGGGATT,-0.14 kcal/mol
10,GGATTCACGTGTGTAG,0.08 kcal/mol
11,GGGTCCACGTGCGTGT,-0.22 kcal/mol
12,GGTGGCACGTGAGGAG,0.09 kcal/mol
13,AAAAGCACGTGTATGT,-0.14 kcal/mol
14,TTGTTCACGTGGCAAG,0.23 kcal/mol
15,TTGTACACGTGACGTA,0.15 kcal/mol
16,TCAATCACGTGTTGTT,0.14 kcal/mol
17,CGGTGCACGTGGGCGC,-0.27 kcal/mol
18,CGTGCCACGTGGTGGA,-0.25 kcal/mol
19,TTGTGCACGTGAATCG,0.2 kcal/mol
20,TTCGTCACGTGGTAAG,0.13 kcal/mol
21,ATTTGCACGTGTAACT,0.07 kcal/mol
22,TGTGCCACGTGGGGGC,-0.26 kcal/mol
23,TAGTGCACGTGCAGTA,0.02 kcal/mol

row,Sequence,relative binding free energy
1,AATAGCACGTGAGATG,0.19 kcal/mol
2,TGTTTCACGTGCTCGA,0.2 kcal/mol
3,TGAGGCACGTGGGCCG,-0.28 kcal/mol
4,ATTTTCACGTGGAAAT,0.31 kcal/mol
5,TTTTACACGTGAGTCA,0.24 kcal/mol
6,TGTCGCACGTGCAGTA,-0.02 kcal/mol
7,GTGGCCACGTGTGTTA,0.13 kcal/mol
8,ATTTTCACGTGTACAG,0.24 kcal/mol
9,TATATCACGTGTATCG,0.25 kcal/mol
10,GGCTTCACGTGGAATG,0.42 kcal/mol
11,TGTGGCACGTGGGTGT,-0.22 kcal/mol
12,GGTGACACGTGCGTGA,-0.03 kcal/mol
13,GTCCTCACGTGGTTTA,0.29 kcal/mol
14,AGTAGCACGTGATGAG,-0.07 kcal/mol
15,GTGTTCACGTGGGGAA,0.16 kcal/mol
16,ATAGGCACGTGAAGAT,0.04 kcal/mol
17,AGAGTCACGTGACGTT,0.17 kcal/mol
18,TGATGCACGTGTTATC,0.03 kcal/mol
19,CGGGACACGTGTGTTC,0.07 kcal/mol
20,TCGTTCACGTGAAGTG,0.42 kcal/mol
21,GTTTCCACGTGTTATG,0.13 kcal/mol
22,GTTTGCACGTGAGTAT,0.24 kcal/mol
23,AATGTCACGTGCATGT,-0.03 kcal/mol
